Data reported in PubChem BioAssay AID504333 (National Center for Advancing Translational Sciences (NCATS), 2011).
Out of some 360,000 compounds screened, about 16,000 (4.4%) were called active. This list was built around the results that the source calls inconclusive (neither active nor inactive); the mix of calls is not that of the screen. Calls come from the whole dose curve; as a rule, active = well fitted inhibition curve with a large enough effect; inconclusive = small, poorly fitted or top-dose-only effect; inactive = no such curve, though single readings can be large or run the other way. Potencies beside an inconclusive call are fits to weak or partial responses and may not hold up.
% is set by controls: 0 for no effect and ±100 for the full control effect; potency is the fitted concentration of half-maximal effect; tags give direction and shape of the fitted curve.
Note: nearly all actives have a fitted effect of over 60% in size.

What follows are compounds tested against Bromodomain adjacent to zinc finger domain protein 2B (Homo sapiens) (UniProt Q9UIF8) (assay: qHTS Assay for Inhibitors of BAZ2B). Conditions: AlphaScreen BAZ2B-H3K14Ac peptide displacement; activity change, negative = inhibition: at 114 µM (top of the series) unless noted.
Sequence of UniProt Q9UIF8 (Q9UIF8 whole entry, looked up, the tested form may be a part): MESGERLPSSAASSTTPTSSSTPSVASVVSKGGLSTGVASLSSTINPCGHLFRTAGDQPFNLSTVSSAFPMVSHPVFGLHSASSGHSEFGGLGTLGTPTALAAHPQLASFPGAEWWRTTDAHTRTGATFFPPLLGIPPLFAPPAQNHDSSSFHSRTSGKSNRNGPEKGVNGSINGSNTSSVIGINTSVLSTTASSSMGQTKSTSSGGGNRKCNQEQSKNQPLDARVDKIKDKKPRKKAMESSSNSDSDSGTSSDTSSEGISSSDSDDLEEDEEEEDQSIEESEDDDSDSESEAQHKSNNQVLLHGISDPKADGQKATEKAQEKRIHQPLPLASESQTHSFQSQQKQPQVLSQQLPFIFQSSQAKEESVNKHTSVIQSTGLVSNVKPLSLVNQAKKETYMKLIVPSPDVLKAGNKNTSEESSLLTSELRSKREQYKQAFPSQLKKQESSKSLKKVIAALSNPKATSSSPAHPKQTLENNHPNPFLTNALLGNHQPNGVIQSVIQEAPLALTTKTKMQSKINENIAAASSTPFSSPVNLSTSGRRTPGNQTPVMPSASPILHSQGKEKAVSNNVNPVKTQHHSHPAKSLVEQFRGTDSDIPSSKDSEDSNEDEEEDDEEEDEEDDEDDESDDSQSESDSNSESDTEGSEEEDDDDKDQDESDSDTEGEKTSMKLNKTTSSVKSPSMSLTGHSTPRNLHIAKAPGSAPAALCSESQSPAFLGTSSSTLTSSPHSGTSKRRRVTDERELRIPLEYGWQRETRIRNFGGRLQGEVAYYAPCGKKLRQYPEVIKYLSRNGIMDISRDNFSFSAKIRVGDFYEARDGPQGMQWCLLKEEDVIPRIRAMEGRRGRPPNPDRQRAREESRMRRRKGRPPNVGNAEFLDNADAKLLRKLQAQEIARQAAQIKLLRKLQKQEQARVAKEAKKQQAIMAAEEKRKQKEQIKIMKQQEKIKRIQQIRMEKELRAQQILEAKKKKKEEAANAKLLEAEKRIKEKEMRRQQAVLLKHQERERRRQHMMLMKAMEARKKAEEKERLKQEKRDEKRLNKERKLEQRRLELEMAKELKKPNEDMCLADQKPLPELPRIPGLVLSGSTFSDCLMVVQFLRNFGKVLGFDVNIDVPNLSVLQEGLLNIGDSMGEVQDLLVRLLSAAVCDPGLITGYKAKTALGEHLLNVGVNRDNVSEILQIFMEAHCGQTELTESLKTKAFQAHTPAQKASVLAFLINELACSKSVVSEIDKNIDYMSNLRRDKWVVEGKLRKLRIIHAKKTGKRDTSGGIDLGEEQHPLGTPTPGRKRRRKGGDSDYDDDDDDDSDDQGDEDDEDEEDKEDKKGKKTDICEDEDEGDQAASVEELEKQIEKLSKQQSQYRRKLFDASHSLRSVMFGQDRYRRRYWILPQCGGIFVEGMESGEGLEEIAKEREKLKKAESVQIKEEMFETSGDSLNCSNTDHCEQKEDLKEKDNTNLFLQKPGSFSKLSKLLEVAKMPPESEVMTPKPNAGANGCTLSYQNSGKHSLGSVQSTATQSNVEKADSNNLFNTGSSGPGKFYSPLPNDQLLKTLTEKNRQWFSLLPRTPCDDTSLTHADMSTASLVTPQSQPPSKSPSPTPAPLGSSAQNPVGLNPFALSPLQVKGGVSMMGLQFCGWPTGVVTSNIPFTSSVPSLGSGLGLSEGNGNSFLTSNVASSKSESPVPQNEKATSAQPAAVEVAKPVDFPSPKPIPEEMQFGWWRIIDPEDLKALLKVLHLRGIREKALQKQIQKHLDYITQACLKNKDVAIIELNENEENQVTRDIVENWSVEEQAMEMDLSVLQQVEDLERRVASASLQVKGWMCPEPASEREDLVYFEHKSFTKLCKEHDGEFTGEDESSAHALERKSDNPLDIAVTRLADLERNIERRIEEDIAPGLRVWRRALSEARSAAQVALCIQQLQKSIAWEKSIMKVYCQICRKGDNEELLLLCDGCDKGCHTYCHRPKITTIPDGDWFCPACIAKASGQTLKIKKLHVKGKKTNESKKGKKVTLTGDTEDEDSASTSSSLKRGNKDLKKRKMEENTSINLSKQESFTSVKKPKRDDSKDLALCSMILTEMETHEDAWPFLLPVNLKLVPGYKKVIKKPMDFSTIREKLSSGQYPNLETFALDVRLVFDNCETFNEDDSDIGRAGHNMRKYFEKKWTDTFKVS
How it was run: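 In this displacement format the biotinylated H3(5-23) peptide acetylated at Lys14 serves as ligand at 50 nM, with BAZ2B at 50 nM in PBS pH 7.4 containing 0.01% Tween-20. Donor and acceptor beads are 10 ug/mL final.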
With CCN1C(=NCCc2cccnc2)N[C@@H](c2ccccc2)C(C(=O)OC)=C1C the Potency was inconclusive: 100 µM [inhibitor, single point].
CC(=O)/C=N/Nc1ccccc1 was tested, and the Potency was inconclusive: 89.1 µM [inhibitor, single point].
For Cc1ccc(S(=O)(=O)NCC(=O)NCC(=O)N(C)Cc2ccc3ccccc3c2)cc1C, the Potency was inconclusive: 89.1 µM [inhibitor, partial curve].
With COc1ccc(C(=O)N(Cc2ccc(N(C)C)cc2)C2CCS(=O)(=O)C2)cc1 (stereo not drawn) the “activity change, negative = inhibition” value was inactive: -30.6%.
Cc1cccc(NC(=O)c2ccccc2NC(=O)C2CCCCC2)c1C was tested, and the Potency was active: 50.1 µM.
COc1cccc(-c2csc(N3CCN(C(=S)NCC(C)C)CC3)n2)c1 was tested, and the Potency was inconclusive: 44.7 µM [inhibitor, partial curve].
With O=C1COc2ccc(-c3csc(NCCc4ccccc4)n3)cc2N1 the Potency was active: 50.1 µM.
CC(NC(=O)CSc1nnc(CC(=O)Nc2ccc(Cl)c(Cl)c2)n1C)c1ccccc1 (stereo not drawn) was tested, and the Potency was inconclusive: 6.31 µM [inhibitor, single point].
For O=C(O)C1CCCN1C(=O)Nc1ccccc1 (stereo not drawn), the Potency was inconclusive: 89.1 µM [inhibitor, single point].
In the case of Nc1[nH]n(-c2ccccc2)c(=O)c1N=Nc1ccc2c(c1)OCCO2, the Potency was active: 10 µM.
With COc1cc(C)ccc1OCCSc1nc2ccc(NC(C)=O)cc2s1 the Potency was inconclusive: 89.1 µM [inhibitor, single point].
With Cc1ccc(-c2ccc(/C=N/NC(=O)CN3CCCC3)o2)cc1Cl the Potency was inconclusive: 31.6 µM [inhibitor, partial curve].
In the case of Cc1ccc2[nH]c(=O)c(CN(CCc3ccccc3)Cc3nnnn3CC3CCCO3)cc2c1 (stereo not drawn), the “activity change, negative = inhibition” value was inactive: 5.06%.
For CCCCCn1c(=O)c2c(nc3n2CCN3c2ccc(Br)cc2)n(C)c1=O, the Potency was inconclusive: 79.4 µM [inhibitor, single point].
With CCOC(=O)c1ccc(NC(=O)Cn2cnc3sc(C(=O)OCC)c(C)c3c2=O)cc1 the “activity change, negative = inhibition” value was inactive: 0.545%.
With COc1ccc(C(c2nnnn2C(C)(C)C)N2CCN(c3nc4ccccc4s3)CC2)cc1OC (stereo not drawn) the Potency was active: 79.4 µM.
For CC1=C(C#N)C(c2ccc(O)cc2)C2=C(CCCC2=O)N1 (stereo not drawn), the “activity change, negative = inhibition” value was inactive: -9.17%.
O=C(N/N=C\C=C\c1ccco1)C1COc2ccccc2O1 (stereo not drawn) was tested, and the Potency was inconclusive: 70.8 µM [inhibitor, partial curve].
For CC1CCN(CCOCCOc2ccc(Cl)cc2Br)CC1, the Potency was active: 79.4 µM.
With Nc1ccc2nc(-c3ccccn3)[nH]c2c1 the Potency was active: 44.7 µM.
For COc1ccc(NC2CCCN(C(=O)CSc3ccncc3)C2)cc1 (stereo not drawn), the Potency was active: 50.1 µM.
For COc1ccccc1NC(=O)C1=C(C)Nc2nc(SCc3cccc(F)c3)nn2C1c1ccc(C(=O)O)cc1 (stereo not drawn), the Potency was active: 50.1 µM.
With COc1ccc(C)cc1Nc1n[n+](-c2ccccc2)c(-c2ccc(OC)c(OC)c2OC)s1 the Potency was inconclusive: 44.7 µM [inhibitor, partial curve].
In the case of CCc1ccc(NC(=O)CS(=O)CC(=O)Nc2ccc(N3CCOCC3)cc2)cc1 (stereo not drawn), the Potency was active: 79.4 µM.
N/C(=N\OC(=O)CCCc1ccccc1)c1ccc([N+](=O)[O-])cc1 was tested, and the Potency was inconclusive: 44.7 µM [inhibitor, partial curve].
With CCOC(=O)C1CCN(C/C=C/c2ccccc2[N+](=O)[O-])CC1 the Potency was inconclusive: 89.1 µM [inhibitor, single point].
With O=C(NCCNC1CCC(c2ccccc2)CC1)c1ccc(F)cc1 (stereo not drawn) the Potency was active: 25.1 µM.
In the case of COc1ccc(OCC(=O)NNC(=O)C(=O)N2CCCC2)cc1, the Potency was inconclusive: 89.1 µM [inhibitor, single point].
For NSc1nc(N)c2nc(-c3ccccc3)c(-c3ccccc3)nc2n1, the “activity change, negative = inhibition” value was inactive: -23.6%.
For CCN(CC)c1ccc(NC(=S)NC(=O)C2CCC2)cc1, the Potency was active: 22.4 µM.
CCOc1ccc(Cl)cc1/C=C1/C(=O)ON=C1C was tested, and the Potency was inconclusive: 89.1 µM [inhibitor, single point].
CCCn1c(=O)c2c(nc3n2CC(C)CN3Cc2ccccc2)n(C)c1=O (stereo not drawn) was tested, and the Potency was inconclusive: 56.2 µM [inhibitor, single point].
With CCOC(=O)c1cc2cc(-c3c(C(=O)OCC)oc4cc(O)cc(O)c4c3=O)ccc2o1 the Potency was inconclusive: 70.8 µM [inhibitor, single point].
For CC(Oc1ccccc1)C(=O)NNC(=O)c1ccccn1 (stereo not drawn), the “activity change, negative = inhibition” value was inactive: -13.2%.
With COc1ccc(/C=C2/SC(=O)N(CCCCCC(=O)Nc3ccccc3C(=O)O)C2=S)cc1 the Potency was active: 56.2 µM.
In the case of COc1cc2c(cc1OC)CN(c1nc(CN3CCOCC3)nc3sc4c(c13)CCC(C)C4)CC2 (stereo not drawn), the Potency was active: 31.6 µM.
With O=C(O)CCCc1nc(-c2ccc(Cl)cc2)no1 the Potency was inconclusive: 6.31 µM [inhibitor, full curve].
Cc1oc2ccc(O)cc2c1C(=O)c1ccc([N+](=O)[O-])cc1 was tested, and the Potency was inconclusive: 35.5 µM [inhibitor, partial curve].
For O=C(O)c1ccc(C2Nc3ccccc3-c3nnc(SCc4ccc(Cl)cc4)nc3O2)cc1 (stereo not drawn), the Potency was active: 50.1 µM.
With N#CCCN(CCN1CCCC1)S(=O)(=O)c1ccc(-c2ccc([N+](=O)[O-])cc2)cc1 the Potency was inconclusive: 100 µM [inhibitor, partial curve].
COc1cc(OC)c(NC(=O)N2CC=C(c3c[nH]c4ccccc34)CC2)cc1Cl was tested, and the Potency was inconclusive: 89.1 µM [inhibitor, single point].
O=C(O)/C=C/C(=O)NCCCc1ccccc1 was tested, and the “activity change, negative = inhibition” value was inactive: -4.44%.
For COc1cc(/C=C2\SC(=S)N(C(C(=O)O)c3ccccc3)C2=O)cc(OC)c1OC (stereo not drawn), the Potency was inconclusive: 50.1 µM [inhibitor, partial curve].
With O=C(NNC(=O)C1CCCC1)c1ccccc1F the “activity change, negative = inhibition” value was inactive: -10.6%.
In the case of COc1ccc(CC(=O)N/N=C/c2c(C)n(C)c3ccccc23)cc1OC, the Potency was inconclusive: 50.1 µM [inhibitor, partial curve].
With Cc1ccc(/C=N/NC(=O)c2nnn(-c3nonc3N)c2CSc2ccc(Cl)cc2)o1 the “activity change, negative = inhibition” value was inactive: -7.16%.
With Cc1ccc(C(=O)NCC(c2cccnc2)N2CCc3ccccc3C2)cc1C (stereo not drawn) the Potency was active: 12.6 µM.
With O=C(NCc1n[nH]c(=S)n1-c1ccc(F)cc1)c1ccc(S(=O)(=O)N2CCCCC2)cc1 the “activity change, negative = inhibition” value was inactive: -0.35%.
